# Data from the supplement of paper PMC3334620.
# Over roughly 33,000 sequences, “E-score (-0.5 to 0.5)” has its median near -0.021; the highest 2% begin near 0.32. The list shows a part of the results.
# Molecular target: T1, Zap1 (UniProt P47043)
# T1 sequence: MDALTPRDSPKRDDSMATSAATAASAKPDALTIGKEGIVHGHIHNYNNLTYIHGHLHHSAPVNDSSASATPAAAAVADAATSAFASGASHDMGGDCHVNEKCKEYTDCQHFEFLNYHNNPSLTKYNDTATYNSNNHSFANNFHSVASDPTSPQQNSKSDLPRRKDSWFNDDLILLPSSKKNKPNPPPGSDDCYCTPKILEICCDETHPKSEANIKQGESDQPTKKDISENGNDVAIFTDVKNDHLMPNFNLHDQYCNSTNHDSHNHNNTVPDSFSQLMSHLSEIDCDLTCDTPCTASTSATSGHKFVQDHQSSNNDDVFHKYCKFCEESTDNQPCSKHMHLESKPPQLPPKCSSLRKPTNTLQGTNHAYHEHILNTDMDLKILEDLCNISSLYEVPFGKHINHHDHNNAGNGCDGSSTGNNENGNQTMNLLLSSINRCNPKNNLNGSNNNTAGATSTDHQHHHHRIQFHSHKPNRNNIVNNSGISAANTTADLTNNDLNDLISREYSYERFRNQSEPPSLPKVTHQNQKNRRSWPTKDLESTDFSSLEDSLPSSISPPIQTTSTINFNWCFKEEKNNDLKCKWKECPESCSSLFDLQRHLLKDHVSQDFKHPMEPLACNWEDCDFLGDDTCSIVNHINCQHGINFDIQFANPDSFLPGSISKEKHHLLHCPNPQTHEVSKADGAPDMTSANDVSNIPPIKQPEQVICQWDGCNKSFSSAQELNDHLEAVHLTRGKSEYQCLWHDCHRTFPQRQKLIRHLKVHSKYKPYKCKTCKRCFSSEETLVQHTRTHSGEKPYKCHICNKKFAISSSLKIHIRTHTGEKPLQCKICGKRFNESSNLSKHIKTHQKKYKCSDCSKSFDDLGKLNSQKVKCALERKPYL
# Test: PBM E-score (8-mer binding enrichment) (E-score (-0.5 to 0.5)); higher = stronger / more preferred TF binding; most listed sequences are background and not binding sites
# Details: protein concentration: 200 nM; construct: GST-full length
# Description: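 Universal 'all 10-mer' protein binding microarrays (Agilent AMADID 015681) probed with GST-tagged S. cerevisiae TFs (full-length or DBD) made by in vitro transcription/translation (PURExpress), about 100-200 nM. Bound TF was detected with fluorescent anti-GST. Each ungapped 8-mer (which stands for itself and its reverse complement) is scored by the PBM enrichment score (E-score), a modified Wilcoxon-Mann-Whitney statistic from -0.5 to +0.5, computed with the Universal PBM Analysis Suite. Scale: above 0.35 generally sequence-specific binding.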
row,Sequence,PBM E-score
1,CGTAGGTA,0.178
2,GAGCCACA,-0.0771
3,CGCCAAAG,-0.0147
4,ATAGATTG,0.119
5,AAACTCAC,-0.025
6,ACGACTGC,-0.037
7,CTGTGCTA,-0.0547
8,AACCCTGA,0.461
9,TACAAACA,0.265
10,TTGCCAAA,0.0251
11,CCCTCGCC,-0.0175
12,CATGCCTA,-0.109
13,AACGCCAG,-0.055
14,ATCGATTG,-0.0139
15,GCAAGGGC,-0.228
16,CTTATGCC,0.104
17,CACGCGCG,-0.155
18,CCGGCACC,-0.0823
19,ACCTGTAG,0.0245
20,CATCCCGG,-0.251
21,ATGTGCCG,-0.166
22,GTGGCAGA,-0.315

row,Sequence,PBM E-score
1,ATAAGAGG,-0.0341
2,ACAAGAAG,0.231
3,CGAAATTA,0.0048
4,GAACATGA,0.0971
5,CCGCTTAC,-0.0249
6,CAGGCTGG,-0.168
7,CTAATCCC,0.0369
8,AAGCACAC,-0.193
9,ATCCCGGC,-0.152
10,CTATCGGA,0.00899
11,AAAGCGCG,-0.0105
12,GCAATATA,0.0538
13,CTAGACCC,-0.0629
14,TGTTTCAA,0.225
15,ATTTCCGA,0.0192
16,AAGTCTGC,-0.222
17,AAACAGCA,0.0469
18,AACAAAGA,0.0702
19,CTGGAGTA,-0.0302
20,CTGTGCGA,-0.128
21,CGTGAGTC,-0.324
22,CGCCCATC,-0.171

row,Sequence,PBM E-score
1,CAACACGC,-0.167
2,GCTACGGA,-0.156
3,AGACTTCG,-0.271
4,ACGCCTAA,-0.0172
5,ACCCCCAA,-0.0064
6,AGTTCTGC,-0.178
7,AAACCTCC,-0.0251
8,CGCGTACG,-0.102
9,ACTAATAA,0.193
10,CGATCTAG,-0.0463
11,ACTCCGAT,-0.161
12,ATGGGCTC,0.00514
13,AGACCTTG,0.0826
14,ACGGAACA,-0.0983
15,CAAGCTTC,-0.132
16,ACCGGCTG,0.024
17,CTTACTGC,-0.166
18,CATACCCC,0.348
19,ACCGCGAA,0.359
20,GCGACGTA,-0.0634
21,GTTATCAA,0.203
22,CCAATAAC,0.297

row,Sequence,PBM E-score
1,GCCCCTCA,-0.12
2,GGTCATAC,0.313
3,AACGTGAA,0.0028
4,CTTATGGA,0.0448
5,ATCAGCGA,0.00112
6,ATCGATCG,-0.118
7,ATGATGGA,-0.0025
8,AATAGCTC,-0.301
9,CGACACGC,-0.0689
10,GGCTAACC,0.0105
11,GCTCGTCA,-0.215
12,AAACTAAA,0.187
13,ACAGCTAC,-0.119
14,GAAGAAAC,0.0174
15,CTAATGTA,0.14
16,ATAACGCA,0.0731
17,TAACCACA,0.417
18,GTAGGTAA,0.199
19,CCGGAAAG,0.0082
20,CATCGCTA,0.086
